# Measured values from the supplement of paper PMC11417369.
# The other results are listed elsewhere or left out.
# System: PF3D7_0420300 AP2 domain 1 (GST-tagged)
# Assay: gcPBM binding intensity (ln(normalized median fluorescence intensity)); higher = stronger DNA binding
# In short: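 An Agilent 4 × 180k array of primer-extended double-stranded 36-bp intergenic genomic probes, with negative controls, was incubated for 1 h with GST-tagged P. falciparum DNA-binding domains expressed in E. coli. Alexa488 anti-GST antibody detected bound protein, scanned at 488 nm. Binding intensity is the highest Masliner-normalised natural-log median intensity across replicate spots of either probe orientation.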
row,Sequence,gcPBM binding intensity (ln)
1,TTTTTTTTTTTTTTTAAACACACGGTGTGAAAATTA [CACACA_site3818],8.79
2,TCTTTATTATTCGCCACACACATATAAATATAAATA [CACACA_site7441],9.59
3,AAAACATAACATTGTTGTACTACTAATAAAATAAGT [XGTACX_site6149],9.36
4,ATAATTTTGTATAATTGTACATTATTTTAAATAAAT [XGTACX_site7952],9.07
5,ATCAATCATGGTTTTACACACACATGCATGTGAAAA [CACACA_site1350],9.7
6,AAAAAAAAAAAAAACACACACACATAGACCTCCAAT [CACACA_site3563],10.1
7,ATAACGAACACTATTACACACATACATACATATGTA [CACACA_site5092],9.67
8,TTTTTTGTTACAACAGTGCAAAAAAACCTTAATGTT,8.87
9,ATATATATATATATATGTACATACAATTATATTCTC [XGTACX_site1133],9.35
10,AATCTTCTTAATTGTAGTACACAATTTATAAACAAA [XGTACX_site8706],8.94
11,TACATAAATTTTAATACATGCAAATAAAATATATAA [TGCATGCA_site131],9.11
12,AAAAATCATTTAAGAACACACAAATATTTCCATTAA [CACACA_site1488],9.35
13,AATAGTTATTCCAGGTGTACATAACATATAATTTAC [XGTACX_site1340],9.31
14,ATCAAAAGAAGACACACACACATACCTATAAATATA [CACACA_site7736],9.97
15,TTATTATTATTACTTACGCACACTTTTTTTTTTATT [CACACA_site411],9.69
16,ATAGGATATTATTCCTGTACATATATATATATATAT [XGTACX_site2108],9.17
17,GACAATTATATGTAGGTGCATATACAAATTTTTTAA,9.11
18,TTTTAAAAAAAAAAAAAATAAGATAAAATTAAATAA [GTGCAC_negctrl_site367],8.87
19,ATAAAAAATATCACATAAAATAAAAAAAGAAAGGAT [XGTACX_negctrl_site294],9.62

row,Sequence,gcPBM binding intensity (ln)
1,TATATATAAAAATATACACACTGTATTATTGTAATA [CACACA_site5959],9.23
2,TATATATATACAGTAGTGCATATATTTAAAATATAT [GTGCAC_site9999],9.18
3,ATATATAAAAATAAATGTACATATTCATATGATGAT [XGTACX_site3411],9.36
4,ATATAAGTATATCTATGTACATACAATATAAATGTA [XGTACX_site2153],9.09
5,TATATACATACATATTGTACTTATAAAGATTAATTT [XGTACX_site2203],9.02
6,ACCCATATTCTTTTTACACACTTGAATAAAAAATAT [CACACA_site4797],9.36
7,GAGATATAAAAGTGTACACATATTGTTATCCATATT [CACACA_site5441],9.33
8,TCCCTGATGTTATTTAATATACCATAAAAAAAAAAA [CACACA_negctrl_site1472],8.78
9,AATAAAAAATAAAAAAGTACATGATGAAAAGGTTTA [XGTACX_site7615],9.49
10,CACACTTTATAATGTTGTACGATACATTATACCAAA [XGTACX_site941],9.17
11,TATATATATATATATACATGCATACAATTTTATGAG [TGCATGCA_site466],9.14
12,ATCTCAAATATAATAAATTATTAGGTATATATATAT [CACACA_negctrl_site1828],9.13
13,TTTTATTCATCATATTGTACATTCTTGTATTTATAG [XGTACX_site8534],9.33
14,ATATACTTACATATTACACACAATATTTTTAAATGG [CACACA_site5916],9.52
15,CTTTTGCCCAAAAAGGTACACACCACAAAGTACATA [CACACA_site8169],9.27
16,TTGTATATACTATACACACACATACATACATACATA [CACACA_site814],9.85
17,TATTTATAATTAAATACACACATATATTATAGATTT [CACACA_site6435],9.31
18,TAAATAATAATAAAATGTACATTATATATGTATATG [XGTACX_site8672],9.21
19,TTTTTTTTTTTTTTCTGTACTGATACTTATAGAGTT [XGTACX_site4736],8.9

row,Sequence,gcPBM binding intensity (ln)
1,AAATAATAAATATATCGTACAAATATCATATATAAA [XGTACX_site2771],9.33
2,TCCTGTTGAGAATGGCGTACATATAAATATTATATA [XGTACX_site1841],9.07
3,TTTCCTCATTTTATCATACACACTTGTTTATATGTG [CACACA_site8202],9.51
4,TTTTTTCTTTTTATAACACACAGGTGAAAAATAATA [CACACA_site1850],9.02
5,TATTACTTTATATATACACACATATAACATAAATGC [CACACA_site3948],9.42
6,CAGGTTCTTATATAGTGTACTATAGACATTCAATTG [XGTACX_site7239],9.14
7,TCTTGTTATAATAATCAATATATGGGTATACTTATG [CACACA_negctrl_site1618],9.24
8,AAAAGGATTTTTTATACACACACTAACTAATGTATA [CACACA_site2356],9.56
9,AAAAAAATAAATAAGACACACACAAAAAAAAAAAAA [CACACA_site8404],9.97
10,ATCATGGAAAAAACAAATGGGCTACATTACCTTTTG [GTGCAC_negctrl_site487],9.35
11,TTGGAGTTCATATGTGGTACACATTTAAATATATTT [XGTACX_site5582],9.24
12,GATATAAACGTATATGTACATATATATATATATATA [GTGCAC_negctrl_site186],9.5
13,ATAATAAATGTCTTCAATGAAGTGGAAATGCTGTTA [TGCATGCA_negctrl_site238],9.09
14,ATATATACATAGAATTGTACATAATTTATGTTCATT [XGTACX_site7426],9.26
15,CAAACAAATTGTGAAACACACATATATATATATATA [CACACA_site2001],9.23
16,AACGTATTATTTATCTGTACAAAATAATAACGTATT [XGTACX_site813],9.15
17,TTTTGTTTTTTCAATGTGCACTTAGGATGTTTTTAT [GTGCAC_site9565],9.53
18,ATCCAAATTAATAATAGTACTTTTAAGTCCTATGTA [XGTACX_site2452],9.06
19,TAAATAAAAATACAGTGTACTTTTTTCTATTTAAAA [XGTACX_site3288],8.84
